# Experimental data published in the supplement of paper PMC10126150.
# Values marked as one replicate rest on one cluster of the flow cell; about a third of the high ones do not repeat.
# System: ATP
# Assay: switch fluorescence ratio, 500 uM ATP over buffer (Cy3 cluster intensity, sum of 5 cycles each) (fold (ratio)); higher = stronger signal-on switching upon ATP binding; sequences stand for … in TCGTCGGCAGCGTCAGATGTGTATAAGAGACAGTTTTTTTTTTTTTTTTTTTTTTTTT…TC
# Settings: aptamer strand: ATP DNA aptamer (quencher-CACCTGGGGGAGTATTGCGGAGGAAGG + anchor), 100 nM annealed; ATP concentration: 500 uM; one replicate
# Outline: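 Clusters with intensities outside 100-1000 RFU were excluded. The remaining Cy3-labelled switching-strand clusters on a modified Illumina MiSeq flow-cell had been annealed to 100 nM quencher-labelled ATP aptamer and imaged in selection buffer, then after 15 min with 500 uM ATP at 22 °C, for five cycles separated by NaOH stripping and re-annealing. The fluorescence ratio, averaged per switch-domain sequence, is each cluster's summed target-cycle Cy3 intensity over its summed buffer-cycle Cy3 intensity.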
# 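Further: ATP exposure 15 min at 22 °C before imaging.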
row,Sequence,switch fluorescence ratio
1,AGCGTAGG,0.995
2,CTAACGGACC,1.28
3,TCGTTCATAA,1.04
4,TTCTTCAAGT,1.01
5,CATGAGAACG,1.02
6,GCTCTTGCGT,0.97
7,ACTCGATGAT,0.985
8,GTTCTAGTCA,1.01
9,GATGAGATAT,1.03
10,ATCGCCGGGT,0.965
11,GCAAGGGTGA,1.05
12,AGATATATG,1
13,AATCTCCTCC,1.67
14,CGGGCGAGCG,0.997
15,GAAGAGGCGG,0.987
16,AAGGTCATC,1.02
17,TAGAATAGC,0.999
18,GCCAAACAAT,1.03
19,GGGCAAATGC,2.08
20,CGTTAATCCT,1.12
21,CGACCGTGCC,1.4
22,GTCAATCACT,1.05
23,GTCAGGGAGC,1
24,GACATGTGGG,0.985
25,ATCTAGCAGA,1.08
26,GCGGGCCTTA,1

row,Sequence,switch fluorescence ratio
1,TTCTATGACT,1.02
2,GGGTAAGCG,0.972
3,CAAAGGAAGA,0.967
4,GTGAGACGAA,1
5,GCGCGGTTGC,1.06
6,GCTAAAACTA,1.07
7,AGGTAAAGCG,1
8,AAATATTAGA,1.02
9,GCTACTCACG,1.56
10,TTTAAGGACC,1.04
11,AAGCTGCGGC,0.986
12,GAGAACAGTA,0.997
13,AAAAGGAAC,1.01
14,GCGTTGTCGG,1.01
15,CTTATTCAGC,0.973
16,TTATGGCCCT,0.976
17,ACGTCTACGT,1.05
18,GCCTATGGCG,0.984
19,GGTAATTCGG,1.02
20,TTCCACTATT,1.07
21,CTGTGATTAG,1.03
22,TATTCAATCG,1.1
23,GGTGTAAAGC,0.989
24,GTATGGGTGA,0.994
25,AGCGCCACGT,0.968
26,CGGGTGTCAG,0.943

row,Sequence,switch fluorescence ratio
1,ATGCGTTAGT,1.06
2,TAAGAGCGCA,0.977
3,CGAGCTCATA,1.03
4,GATGCGGTGC,1.78
5,CTAGGTGAAG,0.982
6,CTTATATTG,1.06
7,TAAGAAAAGA,1
8,CAGGTCTACT,1.01
9,ATCCTTGCAG,1.06
10,TGCACTGTAG,1.12
11,TAACTTGGAC,1.01
12,AGCTCGCCCC,1.13
13,GGATGAGTTG,0.934
14,TGGATGAAC,1.02
15,TCCAAAAGGG,1.01
16,TCTCGGCGGG,0.975
17,TGTACCTACA,1.19
18,TGGGGTACTC,1.05
19,TAGGGAACAA,0.981
20,CGTAGGTACT,0.965
21,GCGCCAGTGT,1.02
22,GGGCGACATT,0.984
23,GTGTCCAGGG,1.15
24,TGCCAGCGTA,0.97
25,GAGCGCTTGA,0.997
26,CCGAGCCTAA,3.48

row,Sequence,switch fluorescence ratio
1,TGCGTACAGG,1.04
2,TCTTTCTGAA,0.97
3,ACGGCAGCGG,1.06
4,ACTGTTTTAG,1.08
5,AAGTACTGTA,1.26
6,AGGAAATGAA,1.03
7,CAGATGGTTA,0.999
8,AAACGAGTCC,1.08
9,GAAATAGCCT,1.2
10,GCGCAGGGG,1.04
11,AGCGGGCTGA,1.05
12,TTTCTTTCCT,1.04
13,CCGTATTGTC,1.2
14,CTCAAGGAGA,1.02
15,GGCCTATAGT,0.997
16,GACTTACTAT,1.1
17,TATGCGACTC,1.06
18,GTCCCGTTTA,0.979
19,ACTTAATTCC,1.12
20,TTTATGACAC,0.97
21,CCTGCTCCCA,1.32
22,TTTGTCAGCC,0.994
23,CCAGACGGCC,1.01
24,ACGGATACCG,0.965
25,TTAAGACGG,0.979
26,AAGTGGTAGC,1.02

row,Sequence,switch fluorescence ratio
1,CGTATTTACA,1.01
2,AAGCCCAGGA,1.14
3,GGCATGGGAG,0.974
4,CAATAAAAAA,0.955
5,GCTGTTTGCG,1.01
6,GACCGCGCCC,1.86
7,CGTGTAAAAG,0.98
8,AGGATATGCG,0.963
9,GGGACGCC,0.972
10,GAGATAGAGT,1.03
11,TTCAGCAGGC,1.17
12,GACTTTGTAA,0.982
13,GATGACTGAA,0.985
14,ACGCGATGG,1.22
15,CTCCTGAAT,1.11
16,TATAGTGCAC,0.961
17,ATGCAGAAGT,0.998
18,GAGTATTATG,1.03
19,GCTCCGGGGT,1.97
20,GTTGTGTTGG,1.01
21,TGGAGGGCGA,0.987
22,GCCTAACTTG,1.01
23,GGGTCTATTC,0.997
24,ATGTTAACCG,0.992
25,ATATCGCAGC,1.18
26,CCTAAGCCCG,0.988

row,Sequence,switch fluorescence ratio
1,TACCAGTAA,1.03
2,TTACATGTG,0.984
3,AAGGCTACAG,1.05
4,GCAATTAGGG,1.06
5,AAGAGCCTTC,1.05
6,CCTTAGGGCA,1.02
7,AGGAGAAAGA,1.09
8,TTGAACGGCA,1.06
9,AACTCACCC,1.2
10,GAAATGCCCA,0.984
11,AGTTACTATG,1.06
12,GTCAAAGCGA,1.06
13,TGACTTCCTC,2.51
14,ACTTGATAGC,1
15,GCGCAGCTGC,1.07
16,AGCGAGTTCG,0.978
17,ACGTGGATTC,1.1
18,TCTCATCGCA,1.09
19,GTTGGTAG,0.996
20,CTTATCTAGT,1.01
21,CATCGTCCCG,0.962
22,ACCCGACGCT,4.81
23,AATAGCCCTA,1.02
24,TGCACAGCAC,1.01
25,ATTCTGAATA,0.985
26,GGGTCCACTG,1.08

row,Sequence,switch fluorescence ratio
1,ACAGGAGACC,1.01
2,CTTGGATTAC,1.27
3,CGTATGGGT,1
4,AGCGACTCTA,1.02
5,GTCTTTGACG,0.96
6,CCTACGGACC,2.45
7,CGAATCTGGT,1
8,TCAGGTAGC,1.01
9,CTGTGTCAAT,1.26
10,CAAGTTCGC,1.03
11,CAATGCGGTC,1.08
12,TAGGAAGTAA,1.02
13,TTCCCGGATG,1.04
14,GGAAATAGAT,0.95
15,TGATGCATGT,0.992
16,GCTAGCATTA,1
17,GACCTTTTGC,1.04
18,CATATCGACA,1.04
19,GGAAGGCCCA,1.01
20,TAGAGAAGCT,1.06
21,TCCACCTGTT,1.09
22,GACCCCTACC,1.48
23,ACCTGTCGCA,1.39
24,TATAGTTAGG,1.01
25,TGTGTGCGTG,0.976
26,TTTGAGCCGT,0.962

row,Sequence,switch fluorescence ratio
1,TGAATAGA,0.972
2,CGGGCCAGCC,1.07
3,CTTATTGCGC,1.09
4,GAGTCGCAGA,0.987
5,AAATTTCGAA,0.994
6,GACATTACCA,1.22
7,ATTGAGCATT,1.01
8,AATGGACCAG,1.01
9,CACTTTCGCT,1.05
10,GTGCGTACCG,0.975
11,ATCTTAAAAG,0.956
12,CCCGCGCGC,1.21
13,CAATTAGTTA,0.987
14,GCAGGTCTTT,0.977
15,GACTTGCCCG,1.06
16,GTTAATTCGT,1
17,GTTTAGCCTA,1.03
18,TCAAAGGCAC,1.48
19,CCATGTCTAT,0.999
